# Assay results from publication PMC4336329 (PLoS ONE, 2015).
# Among all 310,000 compounds or so, about 2,200 (0.71%) showed an effect of 50% or more. The effect is printed as a negative number. This is one part of the list.
# Biological target: human ether-à-go-go-related gene (hERG) potassium channel (human, UniProt Q12809)
# Assay: primary screen, population patch clamp on CHO cells stably expressing hERG
# Chain of human ether-à-go-go-related gene (hERG) potassium channel (Q12809 whole entry, looked up): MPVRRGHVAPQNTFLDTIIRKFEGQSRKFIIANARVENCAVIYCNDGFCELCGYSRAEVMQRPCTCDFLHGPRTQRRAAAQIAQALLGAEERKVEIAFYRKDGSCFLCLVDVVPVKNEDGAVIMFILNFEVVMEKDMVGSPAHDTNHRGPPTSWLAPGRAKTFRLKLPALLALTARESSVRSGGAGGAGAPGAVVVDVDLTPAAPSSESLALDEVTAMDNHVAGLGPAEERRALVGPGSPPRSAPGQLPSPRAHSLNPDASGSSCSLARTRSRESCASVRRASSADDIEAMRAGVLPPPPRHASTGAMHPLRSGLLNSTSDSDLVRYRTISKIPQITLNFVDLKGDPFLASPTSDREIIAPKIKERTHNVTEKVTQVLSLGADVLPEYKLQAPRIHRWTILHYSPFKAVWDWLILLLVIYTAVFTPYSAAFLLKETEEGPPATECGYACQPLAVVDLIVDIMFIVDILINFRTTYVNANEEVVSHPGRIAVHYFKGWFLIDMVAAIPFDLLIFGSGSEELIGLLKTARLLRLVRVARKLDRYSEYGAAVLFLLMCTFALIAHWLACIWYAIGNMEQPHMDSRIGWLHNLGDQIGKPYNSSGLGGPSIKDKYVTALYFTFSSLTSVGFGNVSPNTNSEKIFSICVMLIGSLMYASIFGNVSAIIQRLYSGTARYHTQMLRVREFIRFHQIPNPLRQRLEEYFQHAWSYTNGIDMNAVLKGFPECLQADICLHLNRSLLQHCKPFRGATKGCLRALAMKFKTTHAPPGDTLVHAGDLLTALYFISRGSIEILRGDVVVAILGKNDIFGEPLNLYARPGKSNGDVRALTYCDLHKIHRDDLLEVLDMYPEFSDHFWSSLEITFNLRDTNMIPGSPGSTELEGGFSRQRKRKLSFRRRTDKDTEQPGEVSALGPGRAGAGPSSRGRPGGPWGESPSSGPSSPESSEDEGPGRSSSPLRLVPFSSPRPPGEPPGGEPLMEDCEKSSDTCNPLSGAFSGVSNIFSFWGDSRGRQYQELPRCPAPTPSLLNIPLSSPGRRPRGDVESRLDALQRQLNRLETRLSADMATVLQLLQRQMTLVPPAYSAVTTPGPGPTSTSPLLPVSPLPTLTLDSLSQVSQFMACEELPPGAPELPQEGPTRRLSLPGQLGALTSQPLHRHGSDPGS
row,SMILES,"hERG current change (%, negative = inhibition) at 1uM [%]"
1,NC(=O)CC1C(=O)N(c2ccc(Cl)cc2)C(=S)N1NC(=O)c1cccc(F)c1 (stereo not drawn),11.9
2,O=C(O)C(=O)O.O=[N+]([O-])c1ccccc1S(=O)(=O)N1CCN(CC2CC3C=CC2C3)CC1 (stereo not drawn),12.4
3,c1ccc(-c2nnc(OCCN3CCOCC3)c3ccccc23)cc1,14.5
4,CCC(C)NC(=O)C1CCN(S(=O)(=O)c2ccc(-n3cnnn3)cc2)CC1 (stereo not drawn),15.9
5,O=C(CCCN1C(=O)/C(=C/c2ccccc2Cl)SC1=S)NCCCN1CCOCC1,0.473
6,C=CCn1c(=O)c(CCC(=O)Nc2ccc(N3CCOCC3)cc2)nc2cc(C(F)(F)F)ccc21,-1.24
7,CCCCC(C(=O)NC1CCCC1)N(C(=O)c1snc(C(N)=O)c1N)c1ccc(OCC)cc1 (stereo not drawn),8.4
8,Cc1ccc2c(c1)CCCN2C(=O)c1c(C)noc1C,-3.48
9,Cc1sc2nc3ccc(N4CCCCC4)nn3c(=O)c2c1C,8.77
10,COC(=O)C(C)N1C(=O)S/C(=C/c2cc(C)n(-c3ccccn3)c2C)C1=O (stereo not drawn),1.54
11,CN(Cc1ccc(F)cc1)C(=O)c1cccc(S(=O)(=O)N2CCN(c3ccccc3)CC2)c1,-4.55
12,Cc1sc2ncn(CC(=O)NCCCC(=O)N3CCN(Cc4ccc5c(c4)OCO5)CC3)c(=O)c2c1C,9.66
13,Cc1cc([N+](=O)[O-])nn1Cc1ccc(C(=O)N/N=C/c2ccc(N(C)C)cc2)cc1,12.6
14,CC12CC(c3ccccc3O1)N(C(=O)c1ccco1)C(=S)N2c1ccccc1 (stereo not drawn),14.1
15,COCCCNc1nc2nonc2nc1N1C[C@H]2CC[C@H]1C2,19.2
16,COc1ccc(S(=O)(=O)NCCc2ccccc2)cc1OC,10.8
17,Cc1c(NC(=O)c2ccc(Br)o2)cccc1C(=O)O,8.68
18,CCC(=O)NC(C)C(c1cccs1)N1CCN(Cc2ccccc2)CC1 (stereo not drawn),12.1
19,COc1cc2sc3ccc(-c4ccc5[nH]ccc5c4)cc3c(=O)c2cc1OC,12.5
20,CC(OC(=O)Cc1ccsc1)C(=O)Nc1ccc(C(N)=O)cc1 (stereo not drawn),9.72
21,Cc1cc(C(c2ccc(O)cc2)c2cc(C)c(O)cc2C)c(C)cc1O,10.2
22,CC(C)OC(=O)c1cc(-c2ccc(C=O)o2)ccc1Cl,12.1
23,O=C(COC(=O)CC12CC3CC(CC(Br)(C3)C1)C2)NC(=O)NCc1ccco1,11.9
24,Cc1ccc(NC(=O)COC(=O)CCn2c(C)csc2=O)cc1S(=O)(=O)N1CCOCC1,12.5
25,O=C(O)CSc1nc(C(F)(F)F)cc(=O)n1-c1ccccc1,14.5
26,COc1cc(-n2nnnc2SC)c(OC)cc1Cl,21
27,CCOC(=O)CSc1nc(C2CC2)cc(-c2ccc(F)cc2)c1C#N,10.3

row,SMILES,"hERG current change (%, negative = inhibition) at 1uM [%]"
1,O=C(c1cc2cc(F)ccc2[nH]1)N1CCN(c2cccc(Cl)c2)CC1,11.1
2,Cc1ccc(Cl)cc1NC(=S)N(Cc1ccccc1)Cc1cccnc1,12
3,O=C(Nc1cccc(F)c1)C1CCN(C(=O)NCc2ccccc2)CC1,3.89
4,CN(CC(=O)N1CCN(c2cccc(Cl)c2)CC1)S(=O)(=O)c1cnc[nH]1,-2.33
5,N/C(=N\OC(=O)C12CC3CC(CC(C3)C1)C2)c1ccccc1,-4.05
6,O=C(O)/C=C/C(=O)Nc1ccc(Oc2ccccc2)cc1,12.7
7,COc1ccc(-n2c(SCC(=O)Nc3ccccc3)nnc2-c2ccc(NS(=O)(=O)c3ccc(C)cc3)cc2)cc1,9.11
8,Cc1ccc(C(=O)N/C(=C/c2ccco2)C(=O)NCCCn2ccnc2)cc1,-62.5
9,CC(C)Cc1c(O)nc(SCCN2CCOCC2)[nH]c1=O.Cl,22.2
10,NC(Cc1ccc(O)c([N+](=O)[O-])c1)C(=O)O (stereo not drawn),9.13
11,Cc1nnc(N/N=C/c2ccc(Br)cc2)n1N.Cl,3.68
12,COc1ccc(CCNC(=O)c2ccc3nc(N4CCOCC4)sc3c2)cc1OC,4.99
13,Cc1ccccc1Nc1nnc(SCC(=O)c2c(N)n(C)c(=O)n(C)c2=O)s1,2.74
14,CCOC(=O)CSc1nc2c(sc3ccccc32)c(=O)n1CCCN1CCOCC1,-34
15,COc1cc2c(cc1OC)-c1cc3ccc4c(c3c[n+]1CC2)OCO4,12
16,CCSC1=NCCN1C(=O)c1ccc(S(=O)(=O)N(CC)CC)cc1,11.3
17,CN(CC(=O)Nc1ccc(F)cc1)C(=O)Cn1cnc2ccc(Cl)cc2c1=O,9.11
18,C[C@H](NC(=O)c1nc[nH]c1C(=O)N1CCN(C(=O)OC(C)(C)C)CC1)c1ccccc1,10.5
19,CC1CN(C(=O)CNC(=O)Cc2cccc3ccccc23)CC(C)O1 (stereo not drawn),6.58
20,N#C/C(=C\Nc1ccc2c(c1)OCCO2)C(=O)NCc1ccco1,1.22
21,OCCCc1nc2n(n1)C(c1cccs1)C=C(c1ccc(Br)cc1)N2 (stereo not drawn),12.6
22,CCOC(=O)c1c(C)[nH]c(C(=O)COC(=O)c2ccc(N3CCCC3=O)cc2)c1C,-2.51
23,CCOCCc1nn2c(=O)cc(CSCC(=O)Nc3cccc(C)c3C)nc2s1,7.58
24,COc1ccc(-n2c(SCc3ccccn3)nc3c(c2=O)SCC3)cc1OC,6.15
25,CCCCNC(=O)c1cccc(C(=O)NCCCC)c1,1.41
26,CN(CC(=O)Nc1ccc(F)cc1)C(=O)COc1ccccc1Cc1ccccc1,5.4
27,O=C(CCn1c(=O)oc2ccc(Cl)cc21)N1CCN(c2ccccc2)CC1,6.47
